According to PubChem BioAssay (NCI):
More than one record can exist for a structure, and the calls need not agree.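 Testing used 96-well plates and a 48-hour single-concentration exposure. Example: -40 means 40% of the starting cells died.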 Not every entry of the source has a single result; some have several. Only these are listed. How the source made its calls: active means growth percent below 10; inactive means the rest. There may be further records. These are repeated runs of one drug, at the concentration stated with the values; each value is one run. Brackets with × give the number of equal values in this list.

Test system: HT29 colon
Test: NCI-60 one-dose screen, 48 h (100 = growth as untreated, 0 = no growth, -100 = all killed)

COc1cccc2c1C(=O)c1c(O)c3c(c(O)c1C2=O)C[C@@](O)(C(=O)CO)C[C@@H]3OC1CC(N)C(O)C(C)O1 (stereo not given in full)
growth (0.25 µM, runs of 2015): inactive: 29.6, 48.6, 38.4, 43 (2×), 44.1, 52.4 (2×), 41.2, 41.6 (2×), 45.8 (2×), 50.6 (3×), 48.5, 46.2, 47.8 (2×), 37.6, 37.1 (3×), 42.4 (3×), 36.8, 40.4, 48.7, 54.4, 39.3, 39 (2×), 50, 49, 46.4, 41.9 (2×), 36.4, 53.2, 48.1 (3×), 42.8 (2×), 39.9, 39.2, 43.2 (2×), 40.7, 45.4 (2×), 44.6, 38.2 (2×), 43.6 (2×), 29.4, 42.5, 47.9 (2×), 49.9, 46.6, 47.2, 36.1, 32.8, 32.3, 51.2, 57.4, 40.3, 26.6, 34.9, 53, 51, 48.2, 44.5, 39.6, 49.2, 46.7 (2×), 44.4, 51.4, 49.1, 41.4% | growth (0.25 µM, runs of 2016): inactive: 44.2 (2×), 42.3 (2×), 44.5 (3×), 43.8, 37.9, 40.2, 49.1 (2×), 41.9, 38.2, 37.6, 38.8 (3×), 36.2 (2×), 40.7, 49.9 (2×), 41.5, 39.3 (2×), 47.9, 40.3, 29.8, 44.8, 43.1, 41.7, 24.8, 39.1, 35.9 (2×), 48.6, 42.2, 39.8, 35.3, 40.1, 48.5 (2×), 46, 40.5, 50.9 (2×), 47.5 (2×), 50.2, 52.7, 45.9, 51.7 (2×), 47.8 (2×), 45, 45.2, 48.1, 48.7, 45.5, 46.2, 60.3, 53.3 (2×), 52.4, 53, 53.4, 57.2, 56.2, 54.2 (2×), 55.6, 51.4, 51.1, 54.4, 51.3, 52.8, 44, 48.8, 51.6, 55.8, 41.3% | growth (0.25 µM, runs of 2017): inactive: 46.2, 43.5 (5×), 47.5 (2×), 53, 42.3, 38.4, 43 (3×), 40.7 (2×), 40.8, 42.5, 41.5, 41, 45 (2×), 42.6 (3×), 39.4, 39.6 (2×), 39.7 (3×), 38.5 (2×), 43.4 (2×), 47.3, 38.9, 41.7 (2×), 36.9, 42.9 (3×), 47.2, 41.3 (2×), 38.2 (2×), 34.5, 40.4, 48, 36.7, 37.7, 34.3, 33.2, 40.2, 45.1, 41.2 (3×), 49.1, 35.9, 38.6 (2×), 48.6, 42.7, 37.4, 39.1 (2×), 38.7, 37.5, 41.8 (2×), 40.6 (2×), 47.8, 43.9, 44.4, 43.8, 42.1, 36.1, 42, 52.8, 55.5, 48.4, 48.2, 43.2% | growth (0.25 µM, runs of 2018): inactive: 45.1 (2×), 44.2, 44.8, 42.3, 47.8, 48.5, 43, 41, 45.6 (2×), 43.9, 43.6, 50.6, 46.6 (2×), 42.9, 49.6 (2×), 38.9, 54.2, 49.3 (2×), 49.1, 51.3, 48.2 (2×), 49.5, 53.4, 44.4, 53.8, 55.8, 51.8, 56.3, 43.4, 34.2, 41.2, 45.8, 50.5, 40.3, 46.5, 47.7, 44.7, 40.7, 41.4, 48, 50, 48.6, 52.8, 46, 61.9, 53.6, 58.5, 24.3% | growth (0.25 µM, runs of 2019): inactive: 40.9, 33.7, 36.4, 34.6, 38.6, 43, 36.5, 40.5, 37.3, 33.2, 41.1, 36.6, 33.5, 42, 40.2, 42.8, 41.3, 31.5, 49, 42.1 (2×), 37.4, 43.6, 46.5, 37.2, 48.2, 56.2, 52.7, 39.4, 35.2, 42.9, 37.8, 40, 49.3, 49.4, 41.6, 61.1, 58.6, 40.1, 38.4, 41.5, 45, 47.3, 50.6, 49.6, 48.6, 44.9, 36.9, 37.7, 40.8% | growth (0.25 µM, runs of 2020): inactive: 46.8 (2×), 40, 56.2, 55.5, 49.9, 40.7, 51, 53.2, 43, 44.4, 39.2, 41.2, 47.3, 43.1, 54.3, 49.5, 47, 47.7, 45.8, 49.3% | growth (0.25 µM, runs of 2021): inactive: 61.2, 61.1, 53.2, 53.5, 58.1, 52, 55.1, 50 (2×), 41.8 (2×), 42.6, 39.3 (2×), 55.8, 45.9, 60.5, 54.9, 43, 44.2, 46.8, 40.1, 46.5 (2×), 47, 43.9 (2×), 47.4, 46.4, 39.9 (2×), 60.6, 57.4, 44.9, 41.2, 38.4, 48.1, 54.2, 48.8, 54.8, 57, 40.7, 34.9, 40.8, 35.8, 19, 50.8, 49.5, 49.4, 37.1, 41.5% | growth (0.25 µM, runs of 2022): active: 4.42%, 5.84% and inactive: 10.3, 45.1, 48.7, 39.3, 22.4, 37.9, 44.5, 54.1, 41, 46, 48.6, 48.3, 44.6, 39.7, 37.3, 66.3, 74.5, 51.7, 65.7, 66.7, 87, 45.7, 44, 51.6, 45.2, 38.6% | growth (25 µM, runs of 1991): active: 4.93, 2.46, 0.25, -27.4, 2.62, 3.68, -11.7, 0, -18.7, -15.8, -5.84, 2.8, -27.5, 3.34, -11.9, -14.2, -6.51, -11.2% and inactive: 97.6% | growth (25 µM, runs of 1992): active: 0.605, 2.63, 1.99, -51.5, -21.4, -14.1 (2×), -18.9, 2.81, -7.32, 6.58, -33.5, -21.8, -36.6, -30.5, -31 (2×), 1.3, 0.731, -13, -8.91, -5.65, 5.66, 2.49, 7.49, 4.22, -34.3, -2.81, -57.5, -16, -90.3, -23.6, -67.5, -53.9, -20.3 (2×), -1.95, -17.2, -1.74, 1.45 (2×), -11.2, 0, 3.65 (2×), 5.26, 1.12, -19.2, -5.52, -18.4, -3.46, -23.1, -22.2, -11.7, 2.18, 0.496, 3.35, 2.51, -6.35, -3.12, -42.3, 0.797, -2.26, 3.21, 3.49, 0.449, -45.3, -7.33, -4.72, -16.7, -7.41, 1.17, -0.167, 3.3, -19.1 (3×), -2.02, -21, -0.769, 3.95, -7.87, 6.52, 0.432, -6.14, -16.3, 1.04, -44.3, 0.943, -25.8, 0.873, -6.7, -2.51, -18.7, -2.37, -0.714, 2.56, -32.4, -23.4, -25.4, -1.4, -19.6, -3.86, -25.9, -12.7, -11.4, -7.64, -36, -15.4, 1.29, -17, 2.41, 1.55, 0.679, 1.64, -32, 3.5, -14.2, -28.1% and inactive: 15.1, 18.8, 13.1, 41.6% | growth (25 µM, runs of 1993): active: 1.42, -14.8, -7.94, -40.6, -17.6, -5.76, 6, -34.4, -43.8, 0.0385, -21, -0.599, -16.8, -36.8, -37.5, -2.91, -53.5, -6.76, -21.6, -37.7, 2.94, -0.955, -30.9, 0.966, -25.7 (2×), -27, 0.41, -29.8, 1.73, -8.59, 5.38, -30.5, 0.346, 7.5, -55.1, 0.363, 4.9, -11.7, -10.1, -21.5, -0.49, -15.5, 1.3, 2.66, -8.6% | growth (25 µM, runs of 1994): active: 7.82, -5.84, -6.25, 4.57, 0.936, -25.7 (2×), -53.3, 6.68, -22.7, 1.87, -15.5, 5.57, 4.06, -0.51, -11.1, 1.13, -45.5, -39.7, -94.2, -5.16, 2.45, 0.756, -6.51, -12.2, 9.92, -2.84, -9.18% and inactive: 10.6% | growth (25 µM, runs of 1995): active: -10, 4.71, -21.3, 7.38, -9.67, -7.49, 4.58, 7.15, 5.13, -24.5, 0.134, -25.7, -20.4, 0.724, -9.27, 0.674, -14.5, 2.52, -8.73, -6.4, -34.4, -26.3, -21.7, -23.4, 1.45, -18.6, 2.34, 1.99, -2.22, 1.61, 1.97, -15.6, 0.594, 0.357, 0.801, -19, -45.4, -14.7, 1.05, -5.62% | growth (25 µM, runs of 1996): active: -21.7 (2×), -25, 4.45, 1.26, -33, 1.68, -23.1, -48.3, -29.1, 9.57, 3.02, -0.296, -39.7, -36.9, 0.282, -24, -22.4, -18.4, 8.38, -11.9, -20.7, -10.5, -3.36, -59.3, -45.4, 5.16, -58.6, -41.5, -4.65, -24.7, 4.43, 3.71, -36.1, 1.77, 2.91, 6.38, 1.3, -6.88, -25.5, 0.853, 3.27, 1.69, 4.72, -14.5, 7.29, 3.37, -27.8, -3.75, -27, 0.547% and inactive: 106% | growth (25 µM, runs of 1997): active: -12.6, -48.1, 5.2, -20.9, -3.08, 4.68, -26.4, -15.5, -19.5, 7.03, -1.33, -24.3, 2.78, -48.8, 2.73, -9.92, -56.4, -32.5, 0.491, 2.46, -29.5, 7.3, 2.7, -35.2, 1.5, -14.7, 1.1, -30.2, -9.6, -33.2, -32.4, 4.48, 0.915, -18.9, 1.92, 2.31, -28% and inactive: 23, 11.2, 10.7, 12.9%
